# According to the supplement of paper PMC4166925:
# ± gives the standard deviation of the averaged measurements. Whole data set: some 33,000 sequences, median “E-score (dimensionless, -0.5 to 0.5)” near -0.046, cut for the highest 2% near 0.36. The list shows a part of the results.
# System: T1, SpTbr T-box DNA-binding domain (GST fusion)
# T1 sequence: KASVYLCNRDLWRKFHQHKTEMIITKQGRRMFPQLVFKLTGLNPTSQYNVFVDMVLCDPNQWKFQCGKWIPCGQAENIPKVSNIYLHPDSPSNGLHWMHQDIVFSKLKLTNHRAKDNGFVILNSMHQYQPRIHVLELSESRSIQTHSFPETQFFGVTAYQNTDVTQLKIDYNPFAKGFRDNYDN
# Test: PBM E-score of 8-mer (E-score (dimensionless, -0.5 to 0.5)); Tbr is Tbrain of the sea star Patiria miniata (Pm) or the sea urchin Strongylocentrotus purpuratus (Sp); higher = stronger binding preference; most listed sequences are background and not binding sites
# Settings: the construct has about 5 more residues each side
# Procedure, shortened: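 Primer extension turned Universal Agilent oligonucleotide arrays double-stranded. They were incubated with 200 nM protein in PBS (pH 7.5); the protein was a GST-fused Tbr T-box DNA-binding domain expressed in BL21 E. coli at 20 °C and purified on glutathione. Every ungapped 8-mer was scored from the scanned, quantified probe intensities, and the Universal PBM Analysis Suite gave each an enrichment E-score averaged over duplicate arrays.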
row,Sequence,PBM E-score of 8-mer
1,ATAACGGG,0.104 ± 0.03
2,ATGAATCA,-0.13 ± 0.03
3,GACAAGTC,0.208 ± 0.024
4,CCGTATCA,-0.122 ± 0.057
5,CCCCGACA,0.142 ± 0.018
6,AATTCCGT,-0.161 ± 0.042
7,CAATTCAC,0.251 ± 0.04
8,TGAGCACA,0.0566 ± 0.087
9,ACGTACCT,-0.152 ± 0.065
10,CCTCACGC,0.322 ± 0.036
11,ACGCATGA,-0.0793 ± 0.024
12,CGGTGCAA,0.0157 ± 0.012
13,TGCCGCAA,-0.117 ± 0.059
14,CTCACCAG,0.174 ± 0.045
15,ACCAAGTC,0.0694 ± 0.028
16,TATGAGAA,-0.304 ± 0.058
17,AGGAACAT,-0.253 ± 0.019
18,CTCAGCTA,0.152 ± 0.046
19,AGAAACTA,-0.0789 ± 0.016
20,GATCAATA,0.0446 ± 0.036
21,CGTCCACG,0.0261 ± 0.03
22,CAAGTAGC,0.154 ± 0.0094
23,ATAATTCG,-0.0529 ± 0.0063
24,CGGGCTAC,-0.293 ± 0.11
25,AGCTTTTA,-0.024 ± 0.12

row,Sequence,PBM E-score of 8-mer
1,CTAACTGA,-0.0567 ± 0.055
2,ACCATGGA,-0.128 ± 0.037
3,GCGTGGAC,0.106 ± 0.064
4,CGTGTCTA,0.135 ± 0.05
5,GCGACGCA,0.0499 ± 0.064
6,TGTACTAA,-0.0604 ± 0.086
7,ACGCGAAC,0.276 ± 0.003
8,CGAGATAC,-0.0218 ± 0.054
9,GAAATACA,0.0816 ± 0.0046
10,GTGGTCAA,0.0319 ± 0.018
11,AAGAAGAG,-0.304 ± 0.076
12,CTCTGGGA,0.00265 ± 0.049
13,AGTCCACC,-0.2808 ± 7.1e-06
14,AGTGGGCA,-0.17 ± 0.035
15,ATTACCAG,-0.131 ± 0.019
16,ACATCTCA,0.0408 ± 0.0016
17,TTCTAGAA,-0.0508 ± 0.067
18,ACAACTGG,0.168 ± 0.023
19,ACGGGTCC,-0.0823 ± 0.013
20,ATAAGACG,-0.05511 ± 0.00039
21,ACCGCGCG,0.147 ± 0.073
22,TATCCTGA,-0.209 ± 0.064
23,GATATCCA,0.0554 ± 0.047
24,ATCAAAAA,-0.192 ± 0.085
25,CGTGACTC,0.13 ± 0.042

row,Sequence,PBM E-score of 8-mer
1,CGTCACAC,0.43 ± 0.011
2,CCCTCCAC,-0.0145 ± 0.018
3,CAGCAGGG,-0.189 ± 0.0067
4,AACATTAG,0.0046 ± 0.0078
5,TACAAAAA,-0.168 ± 0.0046
6,GCACAGGC,-0.108 ± 0.0069
7,CAGACGGC,-0.105 ± 0.055
8,CGGGCCGC,-0.2 ± 0.042
9,AGCAGGCG,-0.00857 ± 0.028
10,GACGTTGA,-0.0364 ± 0.041
11,CGTTTCAG,-0.0207 ± 0.028
12,AGCATGAG,-0.0765 ± 0.057
13,CATTTACC,-0.0174 ± 0.1
14,CACAGTCA,0.186 ± 0.015
15,ACGTACCC,-0.0341 ± 0.018
16,AATATGTG,0.215 ± 0.065
17,CGTCAAAG,0.228 ± 0.028
18,CCTTATAA,-0.146 ± 0.028
19,TCAGCGGA,-0.161 ± 0.074
20,GTGTGGGA,0.387 ± 0.038
21,CATTCATC,-0.0954 ± 0.032
22,CGAAAACG,0.0298 ± 0.05
23,CGGATGGA,-0.235 ± 0.07
24,GCCTTATA,-0.0978 ± 0.007
25,AATGATCT,-0.0474 ± 0.036

row,Sequence,PBM E-score of 8-mer
1,CCAAAAGC,-0.124 ± 0.062
2,CAGGCATC,-0.256 ± 0.098
3,AGCATACC,-0.12 ± 0.0049
4,AGGATTAT,-0.0469 ± 0.026
5,ACAACTCG,0.288 ± 0.0067
6,ATCGAACC,-0.25 ± 0.025
7,ACAGTACC,-0.0527 ± 0.046
8,ACTTTCGC,0.328 ± 0.038
9,AACCAGGT,0.0996 ± 0.0088
10,AGGGCCGC,-0.145 ± 0.028
11,GAAGTTCA,-0.112 ± 0.02
12,AACCGCGC,0.0168 ± 0.098
13,AGGTGGAG,0.158 ± 0.025
14,CGATGCGA,0.187 ± 0.025
15,GAAACAAA,-0.186 ± 0.032
16,CTAGCTAG,0.0179 ± 0.0045
17,AGACGACC,-0.0246 ± 0.039
18,AAAGAAAG,-0.17 ± 0.0099
19,AGCGACCT,-0.0731 ± 0.0067
20,GCTAGTCC,-0.0719 ± 0.0034
21,AATTCTCA,0.265 ± 0.042
22,AATAGCAT,-0.0159 ± 0.004
23,AGCTCTGA,-0.163 ± 0.0077
24,ATCGTGGC,0.0387 ± 0.04
25,GGGGATTA,-0.0282 ± 0.03

row,Sequence,PBM E-score of 8-mer
1,TGCAAAAA,0.0559 ± 0.2
2,ATTTCTCG,0.0339 ± 0.025
3,CCGGTTGA,-0.16 ± 0.053
4,GGCTGATA,-0.226 ± 0.048
5,AGGAGCGC,0.0349 ± 0.016
6,ACGAGCGG,-0.186 ± 0.062
7,GTACGGAC,-0.212 ± 0.053
8,GAATTACC,-0.0341 ± 0.024
9,GGCTGCCC,-0.158 ± 0.031
10,GCGCCAGC,0.141 ± 0.077
11,ACAGGGGG,-0.0508 ± 0.041
12,AAATGGAT,-0.128 ± 0.018
13,ATCCCGGA,-0.258 ± 0.033
14,CAACCAGC,-0.0764 ± 0.038
15,CGAGTATC,-0.139 ± 0.032
16,AACAGTAA,0.0105 ± 0.028
17,AATCTGCG,-0.0341 ± 0.043
18,ACTAGAGT,-0.0721 ± 0.018
19,CCCTTTAC,0.0367 ± 0.0033
20,AAAAAGTA,-0.0248 ± 0.024
21,ACAGCTCT,0.176 ± 0.0073
22,ACTGTTAA,0.261 ± 0.036
23,CTCTAGAG,-0.203 ± 0.05
24,ACGCCCGC,0.163 ± 0.024
25,AACTTTCG,0.00917 ± 0.0092

row,Sequence,PBM E-score of 8-mer
1,GATGACAC,0.402 ± 0.0092
2,CAACGATG,0.0119 ± 0.035
3,AATGGATA,-0.181 ± 0.002
4,AGGAAAAG,-0.134 ± 0.12
5,CCCTCTGA,-0.224 ± 0.046
6,GTCTGTCA,0.0728 ± 0.055
7,CATCGTCA,0.158 ± 0.023
8,GTGGGCCA,-0.12 ± 0.06
9,GTTCAGCA,0.0282 ± 0.015
10,ATCGAGGC,-0.0694 ± 0.048
11,ACCTGGTG,0.234 ± 0.0085
12,AAAGGAGT,-0.0705 ± 0.082
13,AATCGCGG,0.126 ± 0.015
14,GGTCCAAC,-0.0949 ± 0.035
15,GACTGAAC,-0.127 ± 0.018
16,CGTCAGGA,0.163 ± 0.015
17,GATGTACA,-0.0336 ± 0.047
18,CACCTGCC,0.3954 ± 0.00044
19,AGATGTAT,-0.0952 ± 0.053
20,ACAGAATC,0.0202 ± 0.0069
21,TATATTAA,-0.135 ± 0.0028
22,ACTGCGAC,0.162 ± 0.037
23,TAACTCGA,-0.16 ± 0.039
24,AACTTGTC,0.355 ± 0.03
25,CAGTAGCG,0.213 ± 0.0017

row,Sequence,PBM E-score of 8-mer
1,CTAGGTAA,-0.13 ± 0.072
2,ACCGCTAG,-0.0258 ± 0.036
3,AAACGAGG,-0.116 ± 0.12
4,ACACGTGA,0.283 ± 0.011
5,AACGCGAT,0.205 ± 0.019
6,ATTAGAAT,-0.162 ± 0.029
7,CGCCAGAG,-0.0471 ± 0.025
8,CTGCAAAA,0.0605 ± 0.04
9,ACGCATTG,0.127 ± 0.0035
10,ATTACAGC,0.0176 ± 0.052
11,AAAAGATG,-0.153 ± 0.13
12,CAGAACCA,-0.18 ± 0.05
13,CCGAGATC,-0.165 ± 0.038
14,GATCGTAA,-0.0521 ± 0.012
15,CCCAACTC,-0.0091 ± 0.025
16,CAAGGTTC,0.047 ± 0.016
17,AAAACCTT,-0.132 ± 0.026
18,GACAAGAA,0.00972 ± 0.027
19,GACGTCGC,0.08563 ± 0.00018
20,CATGGGCC,-0.352 ± 0.015
21,ATATCGGC,-0.104 ± 0.099
22,CTATCCTC,-0.12 ± 0.074
